The supplement of paper PMC4967469
IC50 is the fitted dose that halves viability relative to control wells, and lower means more sensitive; where the fit passes the top or lowest dose, that dose stands as a limit. The AUC spans the tested range (256-fold, ending at the top dose) of the same fit; the more sensitive the line, the further below 1. For some assays here: An inferred top dose was derived from the fitted curves, not read from the paper. For some assays here: Drugs with an entry number were screened twice under separate entries, and the two screens often disagree.

How the values were obtained:
Test in all cases: Viability of human cancer cell lines after 72 h of drug (GDSC screen)
PD-0332991 = compound: CC(=O)c1c(C)c2cnc(Nc3ccc(N4CCNCC4)cn3)nc2n(C2CCCC2)c1=O [PD-0332991]
Description: (§1)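 Human cancer cell lines in 384-well plates, medium with 10% serum, drug for 72 h over a 256-fold dose range (nine 2-fold or five 4-fold steps up to the top dose). Adherent lines were fixed and stained with the nucleic acid dye Syto60, suspension lines read with resazurin; signal relative to control wells, capped at 0 and 100%. One two-parameter sigmoid per drug and line, fitted in a mixed model over all curves with the slope shared within a line.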

ZM-447439 = compound: COc1cc2c(Nc3ccc(NC(=O)c4ccccc4)cc3)ncnc2cc1OCCCN1CCOCC1 [ZM-447439]; conditions: top dose inferred
Description: as §1

AZD6244 = compound: Cn1cnc2c(F)c(Nc3ccc(Br)cc3Cl)c(C(=O)NOCCO)cc21 [AZD6244]; conditions: screen: GDSC drug entry 1062
Description: as §1

Row | Cell Line | AUC (PD-0332991) | IC50 (PD-0332991) | AUC (ZM-447439) | IC50 (ZM-447439) | AUC (AZD6244) | IC50 (AZD6244)
1 | SNU-C1 (large intestine, suspension, top dose 4 µM) | 0.83 | > 4 µM | 0.913 | > 4 µM | 0.901 | > 4 µM
2 | SNU-C2B (large intestine, adherent, top dose 4 µM) | 0.961 | > 4 µM | 0.972 | > 4 µM | 0.879 | > 4 µM
3 | SNU-C5 (large intestine, adherent, top dose 4 µM) | 0.875 | > 4 µM | 0.957 | > 4 µM | 0.986 | > 4 µM
4 | SR (lymphoid neoplasm, suspension, top dose 4 µM) | 0.752 | 1.21 µM | 0.804 | 1.77 µM | 0.892 | 3.89 µM
5 | ST486 (Burkitt lymphoma, suspension, top dose 4 µM) | 0.98 | > 4 µM | 0.924 | > 4 µM | 0.942 | > 4 µM
6 | STS-0421 (soft tissue, adherent, top dose 4 µM) | 0.95 | > 4 µM | 0.973 | > 4 µM | 0.98 | > 4 µM
7 | SU-DHL-4 (B-cell lymphoma, suspension, top dose 4 µM) | 0.997 | > 4 µM | 0.997 | > 4 µM | 0.997 | > 4 µM
8 | SU-DHL-5 (B-cell lymphoma, suspension, top dose 4 µM) | 0.859 | 2.08 µM | 0.694 | 0.75 µM | 0.99 | > 4 µM
9 | SU-DHL-6 (B-cell lymphoma, suspension, top dose 4 µM) | 0.415 | 0.156 µM | 0.94 | > 4 µM | 0.995 | > 4 µM
10 | SU-DHL-8 (B-cell lymphoma, suspension, top dose 4 µM) | 0.98 | > 4 µM | 0.91 | > 4 µM | 0.982 | > 4 µM
11 | SU-DHL-10 (B-cell lymphoma, suspension, top dose 4 µM) | 0.738 | 0.941 µM | 0.75 | 1.01 µM | 0.977 | > 4 µM
12 | SU-DHL-16 (B-cell lymphoma, suspension, top dose 4 µM) | 0.983 | > 4 µM | 0.883 | 2.32 µM | 0.995 | > 4 µM
13 | SUIT-2 (pancreas, adherent, top dose 2 µM) | 0.715 | 0.526 µM | 0.975 | > 2 µM | 0.647 | 0.326 µM
14 | SUP-B8 (B-cell leukaemia, suspension, top dose 4 µM) | 0.78 | 1.63 µM | 0.901 | > 4 µM | 0.989 | > 4 µM
15 | SUP-B15 (lymphoblastic leukaemia, suspension, top dose 4 µM) | 0.867 | 3.34 µM | 0.819 | 2.14 µM | 0.977 | > 4 µM
16 | SUP-HD1 (Hodgkin lymphoma, suspension, top dose 4 µM) | 0.912 | > 4 µM | 0.972 | > 4 µM | 0.981 | > 4 µM
17 | SUP-M2 (anaplastic large cell lymphoma, suspension, top dose 4 µM) | 0.976 | > 4 µM | 0.79 | 1.34 µM | 0.993 | > 4 µM
18 | SUP-T1 (T-cell lymphoblastic leukaemia, suspension, top dose 4 µM) | 0.982 | > 4 µM | 0.952 | > 4 µM | 0.969 | > 4 µM
19 | SW48 (large intestine, adherent, top dose 4 µM) | 0.923 | > 4 µM | 0.741 | 1.22 µM | 0.947 | > 4 µM
20 | SW620 (large intestine, adherent, top dose 4 µM) | 0.796 | 1.63 µM | 0.947 | > 4 µM | 0.987 | > 4 µM
21 | SW684 (fibrosarcoma, adherent, top dose 4 µM) | 0.965 | > 4 µM | 0.983 | > 4 µM | 0.96 | > 4 µM
22 | SW756 (cervix, adherent, top dose 4 µM) | 0.978 | > 4 µM | 0.937 | > 4 µM | 0.88 | > 4 µM

Row | Cell Line | AUC (PD-0332991) | IC50 (PD-0332991) | AUC (ZM-447439) | IC50 (ZM-447439) | AUC (AZD6244) | IC50 (AZD6244)
23 | SW780 (bladder, adherent, top dose 4 µM) | 0.698 | 0.954 µM | 0.836 | 3.01 µM | 0.625 | 0.57 µM
24 | SW948 (large intestine, adherent, top dose 4 µM) | 0.971 | > 4 µM | 0.962 | > 4 µM | 0.941 | > 4 µM
25 | SW954 (urogenital system, adherent, top dose 4 µM) | 0.65 | 0.656 µM | 0.695 | 0.889 µM | 0.69 | 0.859 µM
26 | SW962 (urogenital system, adherent, top dose 4 µM) | 0.628 | 0.615 µM | 0.919 | > 4 µM | 0.812 | 2.83 µM
27 | SW982 (soft tissue, adherent, top dose 4 µM) | 0.813 | 2.25 µM | 0.886 | > 4 µM | 0.865 | 3.73 µM
28 | SW1710 (bladder, adherent, top dose 4 µM) | 0.743 | 1.28 µM | 0.871 | 3.98 µM | 0.836 | 2.78 µM
29 | SW1783 (glioma, adherent, top dose 4 µM) | 0.991 | > 4 µM | 0.981 | > 4 µM | 0.989 | > 4 µM
30 | Saos-2 (osteosarcoma, adherent, top dose 4 µM) | 0.946 | > 4 µM | 0.925 | > 4 µM | 0.945 | > 4 µM
31 | T84 (large intestine, adherent, top dose 4 µM) | 0.989 | > 4 µM | 0.987 | > 4 µM | 0.983 | > 4 µM
32 | T98G (glioma, adherent, top dose 4 µM) | 0.769 | 1.4 µM | 0.889 |  | 0.95 | > 4 µM
33 | T-T (oesophagus, adherent, top dose 4 µM) | 0.843 | 2.8 µM | 0.888 | > 4 µM | 0.967 | > 4 µM
34 | TC-71 (Ewing sarcoma, adherent, top dose 4 µM) | 0.944 | > 4 µM | 0.792 | 1.48 µM | 0.992 | > 4 µM
35 | TC-YIK (cervix, suspension, top dose 4 µM) | 0.991 | > 4 µM | 0.741 | 1.09 µM | 0.991 | > 4 µM
36 | TCCSUP (bladder, adherent, top dose 4 µM) | 0.92 | > 4 µM | 0.915 | > 4 µM | 0.972 | > 4 µM
37 | TE-1 (oesophagus, adherent, top dose 4 µM) | 0.982 | > 4 µM | 0.932 | > 4 µM | 0.935 | > 4 µM
38 | TE-4 (oesophagus, adherent, top dose 4 µM) | 0.918 | > 4 µM | 0.878 | > 4 µM | 0.987 | > 4 µM
39 | TE-5 (oesophagus, adherent, top dose 4 µM) | 0.864 | > 4 µM | 0.96 | > 4 µM | 0.903 | > 4 µM
40 | TE-6 (oesophagus, adherent, top dose 4 µM) | 0.896 | > 4 µM | 0.973 | > 4 µM | 0.966 | > 4 µM
41 | TE-8 (oesophagus, adherent, top dose 4 µM) | 0.715 | 1.06 µM | 0.844 | 3.17 µM | 0.858 | 3.67 µM
42 | TE-9 (oesophagus, adherent, top dose 4 µM) | 0.963 | > 4 µM | 0.846 | 3.09 µM | 0.977 | > 4 µM
43 | TE-10 (oesophagus, adherent, top dose 4 µM) | 0.909 | > 4 µM | 0.939 | > 4 µM | 0.934 | > 4 µM
44 | TE-11 (oesophagus, adherent, top dose 4 µM) | 0.9 | > 4 µM | 0.813 | 1.92 µM | 0.884 | 3.68 µM

Row | Cell Line | AUC (PD-0332991) | IC50 (PD-0332991) | AUC (ZM-447439) | IC50 (ZM-447439) | AUC (AZD6244) | IC50 (AZD6244)
45 | TE-12 (oesophagus, suspension, top dose 4 µM) | 0.958 | > 4 µM | 0.943 | > 4 µM | 0.759 | 1.68 µM
46 | TE-15 (oesophagus, suspension, top dose 4 µM) | 0.862 | > 4 µM | 0.917 | > 4 µM | 0.964 | > 4 µM
47 | TGBC1TKB (biliary tract, adherent, top dose 4 µM) | 0.867 | 3.57 µM | 0.96 | > 4 µM | 0.934 | > 4 µM
48 | TGBC11TKB (stomach, adherent, top dose 4 µM) | 0.992 | > 4 µM | 0.969 | > 4 µM | 0.992 | > 4 µM
49 | TGW (neuroblastoma, adherent, top dose 4 µM) | 0.731 | 1.02 µM | 0.887 | 3.36 µM | 0.989 | > 4 µM
50 | TK10 (kidney, adherent, top dose 4 µM) | 0.797 | 2.35 µM | 0.948 | > 4 µM | 0.86 | > 4 µM
51 | TK (B-cell lymphoma, suspension, top dose 4 µM) | 0.99 | > 4 µM | 0.968 | > 4 µM | 0.99 | > 4 µM
52 | TMK-1 (stomach, adherent, top dose 4 µM) | 0.89 | > 4 µM | 0.941 | > 4 µM | 0.986 | > 4 µM
53 | TOV-21G (ovary, adherent, top dose 4 µM) | 0.772 | 1.69 µM | 0.755 | 1.46 µM | 0.943 | > 4 µM
54 | TT2609-C02 (thyroid, adherent, top dose 4 µM) | 0.593 | 0.459 µM | 0.719 | 1.09 µM | 0.392 | 0.123 µM
55 | TUR (B-cell lymphoma, suspension, top dose 4 µM) | 0.588 | 0.428 µM | 0.794 | 1.68 µM | 0.939 | > 4 µM
56 | U-87-MG (glioma, adherent, top dose 4 µM) | 0.914 | > 4 µM | 0.932 | > 4 µM | 0.918 | > 4 µM
57 | U-118-MG (glioma, adherent, top dose 4 µM) | 0.849 | 3.74 µM | 0.93 | > 4 µM | 0.93 | > 4 µM
58 | U-266 (myeloma, semi-adherent, top dose 4 µM) | 0.882 | > 4 µM | 0.766 | 2.01 µM | 0.596 | 0.501 µM
59 | U-698-M (B-cell leukaemia, suspension, top dose 4 µM) | 0.948 | > 4 µM | 0.977 | > 4 µM | 0.987 | > 4 µM
60 | UACC-62 (melanoma, adherent, top dose 4 µM) | 0.963 | > 4 µM | 0.935 | > 4 µM | 0.979 | > 4 µM
61 | UACC-257 (melanoma, adherent, top dose 4 µM) | 0.92 | > 4 µM | 0.963 | > 4 µM | 0.539 | 0.328 µM
62 | VA-ES-BJ (soft tissue, adherent, top dose 4 µM) | 0.635 | 0.604 µM | 0.846 | 3.18 µM | 0.905 | > 4 µM
63 | VAL (B-cell lymphoma, suspension, top dose 4 µM) | 0.934 | > 4 µM | 0.884 | > 4 µM | 0.986 | > 4 µM
64 | VCaP (prostate, adherent, top dose 4 µM) | 0.917 | > 4 µM | 0.97 | > 4 µM | 0.987 | > 4 µM
